Experimental findings from paper PMC12136788 are described below.

B1: chr18:2547350:2547451:-|CDS|ENSG00000101574|unk|total|mutant (ssRNA)
RNA: GGGAGUUCUACAGUCCGACGAUCCCGACAGAAGCACCUACGUUUUAUAAAGGAAGAACUUUAUCCCUCUUGGUCUGUGGAGGCCGUUGCUGAGUGGCACUGGGUAAAAGUAAGUUCAGAAGUCCGCUUAUUUGUUAAUACAGCCAACAGAGGAUUGAGCAUCA
B2: chr17:48762233:48762973:-|three_prime_utr|ENSG00000170703|control|control|control (ssRNA)
RNA: GGGAGUUCUACAGUCCGACGAUCGUCUCUUCCGACAGUGUCUCCAGUGUUCACAGAAUCAACUGAAGUUUUGUUUGCUCAUCUAGAUAUACUGGUCUUCCAUUAGUUCCUAGUAGCAGCAAUGGGGCCAACAGCCCUGCCUCUCAACAGAGGAUUGAGCAUCA
B3: chr11:74334375:74334476:-|3pUTR|ENSG00000165434|msi1|FALSE|unique (ssRNA)
RNA: GGGAGUUCUACAGUCCGACGAUCUUUUUGUUUUAUUUUUAAAAUGUGUAAAACAUCUUUUGUUUUAUAUGCUUUUAAGAAUGUAGAUUGUAAUUUAGGAAAUGGCAUAUAUUCUGCAAAGUGGUAUAAUGUUGUAUAUAUGAACAACAGAGGAUUGAGCAUCA
B4: chr22:45843749:45843850:+|3pUTR|ENSG00000130638|msi1|FALSE|unique (ssRNA)
RNA: GGGAGUUCUACAGUCCGACGAUCAAAUUGCAAGUGUUUGAAGAUUUAUAAGUACAAAUUUGGGAACAUACAAAUCUUUUAGGUAGUAGAGUUUAACGUGUAUAAGCUAAAAGUGAAAGUAACUGAGUGUUCUCUUGUUUCUUUCAACAGAGGAUUGAGCAUCA
B5: chr11:119418629:119418730:-|3pUTR|ENSG00000154096|msi1|total|mutant (ssRNA)
RNA: GGGAGUUCUACAGUCCGACGAUCCCUCAGAGGCCUUGGGGCAUGACCCAGUGAAGAUGCAGGUUUGACCAGGAAAGCAGCGCCCGUGGAGGGUUGGAGAAGGAGGUAAAGGAUGAGGGUUCAUCAUCCCUCCCUGCCUAAGGACAACAGAGGAUUGAGCAUCA
B6: chr2:206003504:206003605:-|3pUTR|ENSG00000114933|msi1|total|mutant (ssRNA)
RNA: GGGAGUUCUACAGUCCGACGAUCGGUCGUGUGAGCCGCACAACCUUUUUCUGCUAAAAGUCCGCCCAAGAAGAAACAGAACACCGAAAGCUUGGAUUCCCGUCAGUGAGGCCGGGAUGUCCUAAAAAGCUUGCCUGGGAUGACCAACAGAGGAUUGAGCAUCA
B7: chr17:39471515:39471616:+|CDS|ENSG00000167258|unk|FALSE|unique (ssRNA)
RNA: GGGAGUUCUACAGUCCGACGAUCUUGCCUCCAAUACCAGCUCUUCCACAGCAACCACCUCUGCCUCCUUCUCAGCCAGCAUUUAGUCAGGUUCCUGCUUCCAGUACUUCAACUUUGCCCCCUUCUACUCACUCAAAGACAUCUCAACAGAGGAUUGAGCAUCA
B8: chr1:165890246:165890361:+|CDS|ENSG00000143179|unk|total|mutant (ssRNA)
RNA: GGGAGUUCUACAGUCCGACGAUCCUCCUGGGGCAGAAUGAGGUGGACUAUCGCCAGAAGCAGGUGGUCAUCCUGAGCCAGGACCGCUUCUACCGUGUCCUUACCUCGGAGCAGAAGGCCAAAGCCCUGAAGGGCCAGUUCAACCAACAGAGGAUUGAGCAUCA
B9: chr2:30158716:30158817:+|CDS|ENSG00000119801|msi1|total|mutant (ssRNA)
RNA: GGGAGUUCUACAGUCCGACGAUCGUUUGCCACUGAAGACAGCCAGCGAUAUAAGGAAGGCCGCGUGAUCCUGGAACGUGCUCCCGUUCGAGAGAGUGAGGGCUUUGAGGAGCAUGUACCAUCUGAUAACUCUUGAAGAUACAGCAACAGAGGAUUGAGCAUCA
B10: chr6:33573622:33573723:-|3pUTR|ENSG00000030110|unk|total|mutant (ssRNA)
RNA: GGGAGUUCUACAGUCCGACGAUCCGAAGUCUUUGCCUUCUCUGUUCCCUUGCAGGGGUCCCCCCUCAAGAGUACAGAAGCUUCCGCAAGUGUGCACUCCAGCUUCGGAGGGCCCCUGCGUGGGGGCCAGUCAGGCUGCAGAGGCAACAGAGGAUUGAGCAUCA
B11: chr6:122458524:122458701:-|CDS|ENSG00000111897|unk|total|mutant (ssRNA)
RNA: GGGAGUUCUACAGUCCGACGAUCGGAAGUGCCCCGUGUUUGCUAUGCCGAUGCUGUCCCCGUGGAAACAACUCCACUGUAACCCGAUUGAUCUAUGCACUUUUCUUGCUUGUUGGAGUAUGUGCCGCUUGUGUAAUGUUGAUACAACAGAGGAUUGAGCAUCA
B12: ENSG00000107863:be:win_3151|CDS|ENSG00000107863|bound_else_gene|NA|bound_elsewhere_windowed (ssRNA)
RNA: GGGAGUUCUACAGUCCGACGAUCAGGGAUCUAAUUAGUCGAAGAAUAAAAGAAUACAACAAUCUGAUGAGCAAAGCAGAACAGUUGCCAAAAACACCUCGCCAGAGUCUCAGCAUCAGGCAAACUUUGCUUGGUGCUAAAUCACAACAGAGGAUUGAGCAUCA
B13: chr10:30820206:30820444:-|three_prime_utr|ENSG00000183621|control|control|control (ssRNA)
RNA: GGGAGUUCUACAGUCCGACGAUCCUUAUCUAAUCUCCAAAUGAAGAAUGGGCCCAUCUGACAUAUCCUAUGAGCACAAAGCUUAGGGGACUCUUCACCGAAACCUAGACAAAUAUUUGAAUGCAUUUUUUUUUUUUUUUUUUGCAACAGAGGAUUGAGCAUCA
B14: chr6:106663037:106663138:+|CDS|ENSG00000130348|msi1|FALSE|unique (ssRNA)
RNA: GGGAGUUCUACAGUCCGACGAUCAGCACAGAAAGUGAGACGCCUCAUUGCUAAUGACUUUGUAAAUGCUUUUAACUCUGGAGUAGAUGUCUUGCUAACUCCCACCACCUUGAGUGAGGCAGUACCAUACUUGGAGUUCAUCAACAACAGAGGAUUGAGCAUCA
B15: chr7:44121865:44121972:-|CDS|ENSG00000106628|unk|total|mutant (ssRNA)
RNA: GGGAGUUCUACAGUCCGACGAUCGUGCCAGUGGCAACCUACACCAACUCCUCACAACCCUUCCGGCCCGGAGAGCGCAGCUUCCGCCGGCAGUAUGCCCACAUUUAUGCCACCCGCCUCAUCCAAAUGAGACCCUUCCUGGAGCAACAGAGGAUUGAGCAUCA
B16: chr11:8104520:8104621:+|3pUTR|ENSG00000166402|msi1|total|mutant (ssRNA)
RNA: GGGAGUUCUACAGUCCGACGAUCGGCAAUCAGCAAUCAACUGAGGUUUCUUAAUUGUGAUUAUAUUCCUGAGAAUGAAUGAGCCGGAAAGGAAUAAGGAUGUUGUUAUGAUCGCCUGUGGAUUUUGUCCAUUCAUCUCAUGCUCAACAGAGGAUUGAGCAUCA
B17: chr8:93922960:93923061:+|CDS|ENSG00000164951|msi1|total|mutant (ssRNA)
RNA: GGGAGUUCUACAGUCCGACGAUCCGGCUCAUGGUCAGCAGUCACGCUGUCUAAUGACCACAAUGCUCAAAAUGAAAGAGAACCCGAACGGCUGAAAUUGGAACAUCCAAAGAGUGAGGCCAAGAGUGUCGUGAAACAGGAUCGCAACAGAGGAUUGAGCAUCA
B18: chr15:50499066:50499164:+|CDS_3pUTR|ENSG00000138592|msi1_unk|total|mutant (ssRNA)
RNA: GGGAGUUCUACAGUCCGACGAUCUACUUCAUUGGGACCACGAGUAACUGAUGCCGCCACAUAAGGAGACACCGGUUAUAAACCCGUUAUCUUUUAAAAGGCUCAGCAACACAACUCUUGAAAUGCUUAUCAGGAUAAUGGCCGCAACAGAGGAUUGAGCAUCA
B19: chr13:49912701:49915062:-|three_prime_utr|ENSG00000123178|control|control|control (ssRNA)
RNA: GGGAGUUCUACAGUCCGACGAUCACUUGUAUUUCUGCACUGUUAAAAAAUGUUCAUCAUUUAAUAAAACUUUACCUGGCCUAUAGAUGAAAAUAUAUUCUUAAAAAUAUGCUUGUUGAUGCUGUCUAAGGAACCAAUGUAUUCCAACAGAGGAUUGAGCAUCA
B20: chr20:3864521:3864622:+|CDS|ENSG00000088888|msi1|FALSE|bound_elsewhere (ssRNA)
RNA: GGGAGUUCUACAGUCCGACGAUCGCCCUGAAAGUGCCUGCCAACCCAGCAUCUGUCAGCACAGUGCCCUCCAAGUUGCCAACUAGCUCAAAGCCCCCUGGUGCAGUGCCUUCUAAUGCGCUCACCAAUCCAGCACCAUCCAAACAACAGAGGAUUGAGCAUCA
B21: chr1:213241816:213241921:+|CDS|ENSG00000136643|unk|total|mutant (ssRNA)
RNA: GGGAGUUCUACAGUCCGACGAUCGAGAAACACUAUGCACAGGAGGAUCCCAGGAUGUUAUUUGCCGCAGCUGUUGAUCACCGCCGUUCAGGAGAUAUGUCUUUGUUACCCAGCUCAGAUCCUAAGUUUCAAGGACUUGGAGUGCAACAGAGGAUUGAGCAUCA
B22: chr13:19993219:19993350:+|CDS|ENSG00000121741|unk|FALSE|unique (ssRNA)
RNA: GGGAGUUCUACAGUCCGACGAUCUGAUGAUGAUGUUGUUUUUAUCGAACCUGUACAACCUCCCCCACCUUCUGUACCAGUGGUAGCUGAUCAAAGAACCAUAACAUUUACAUCAUCAAAAAAUGAAGAACUACAAGGAAAUGACAACAGAGGAUUGAGCAUCA

The list shows a part of the results.

For the experiment, the target named is MSI1 full-length (mouse, UniProt Q61474 1-362). Kind of experiment: nsRBNS (natural sequence RNA bind-n-seq); RBNS binding buffer (assumed for nsRBNS): 25 mM Tris pH 7.5, 150 mM KCl, 3 mM MgCl2, 0.01% Triton X-100, 500 ug/ml BSA, 20 U/ml SUPERase-In, 4 C; UNK is unkempt and MSI1 is Musashi-1; names of the RNAs are library labels; protein concentration not given here; high values mean tight binding.
UniProt Q61474, sequence (Q61474 whole entry): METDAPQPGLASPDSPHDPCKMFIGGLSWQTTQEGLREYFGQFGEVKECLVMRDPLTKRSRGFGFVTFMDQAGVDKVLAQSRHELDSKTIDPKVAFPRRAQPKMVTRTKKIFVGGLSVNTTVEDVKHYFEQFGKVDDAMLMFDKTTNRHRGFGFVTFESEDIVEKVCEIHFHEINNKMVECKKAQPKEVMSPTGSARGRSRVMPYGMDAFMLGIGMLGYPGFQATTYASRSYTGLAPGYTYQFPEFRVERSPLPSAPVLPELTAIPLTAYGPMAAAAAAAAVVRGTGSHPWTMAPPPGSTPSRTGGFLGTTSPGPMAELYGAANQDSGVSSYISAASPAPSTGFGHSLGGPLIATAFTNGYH
As to B1, the binding signal was 0.46 enrichment R. The same measure for B2: 1.03 enrichment R. For B3, the binding signal came out at 3.15 enrichment R. The same measure for B4: 7.75 enrichment R; for B5: 0.415 enrichment R; for B6: 0.304 enrichment R.

As to B7, the binding signal is 1.22 enrichment R. B8 showed a binding signal of 0.367 enrichment R. The value for B9 was 0.472 enrichment R; that for B10 was 0.277 enrichment R.

As for B11, the binding signal is 0.329 enrichment R. B12 displayed a binding signal of 1.19 enrichment R.

Molecule B13 showed a binding signal of 1.77 enrichment R.

B14 came in with a binding signal of 0.397 enrichment R.

Regarding B15, the binding signal was 0.621 enrichment R. The same measure for B16: 0.186 enrichment R; for B17: 0.449 enrichment R; for B18: 0.332 enrichment R. B19 gave a binding signal of 0.998 enrichment R. For the molecule B20, the binding signal stood at 0.651 enrichment R. In turn, B21 gave a binding signal of 0.466 enrichment R. The same measure for B22: 0.466 enrichment R.
